Screen size: about 310,000 compounds; about 14,000 (4.5%) showed an effect of 50% or more. Effects have a minus sign here. Some of the results follow.
Each compound was assayed against human ether-à-go-go-related gene (hERG) potassium channel (human, UniProt Q12809) (assay: primary screen, population patch clamp on CHO cells stably expressing hERG).
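Also: peak tail current of the secondary pulse compared with the same well before compound.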

human ether-à-go-go-related gene (hERG) potassium channel, sequence (Q12809 whole entry, looked up): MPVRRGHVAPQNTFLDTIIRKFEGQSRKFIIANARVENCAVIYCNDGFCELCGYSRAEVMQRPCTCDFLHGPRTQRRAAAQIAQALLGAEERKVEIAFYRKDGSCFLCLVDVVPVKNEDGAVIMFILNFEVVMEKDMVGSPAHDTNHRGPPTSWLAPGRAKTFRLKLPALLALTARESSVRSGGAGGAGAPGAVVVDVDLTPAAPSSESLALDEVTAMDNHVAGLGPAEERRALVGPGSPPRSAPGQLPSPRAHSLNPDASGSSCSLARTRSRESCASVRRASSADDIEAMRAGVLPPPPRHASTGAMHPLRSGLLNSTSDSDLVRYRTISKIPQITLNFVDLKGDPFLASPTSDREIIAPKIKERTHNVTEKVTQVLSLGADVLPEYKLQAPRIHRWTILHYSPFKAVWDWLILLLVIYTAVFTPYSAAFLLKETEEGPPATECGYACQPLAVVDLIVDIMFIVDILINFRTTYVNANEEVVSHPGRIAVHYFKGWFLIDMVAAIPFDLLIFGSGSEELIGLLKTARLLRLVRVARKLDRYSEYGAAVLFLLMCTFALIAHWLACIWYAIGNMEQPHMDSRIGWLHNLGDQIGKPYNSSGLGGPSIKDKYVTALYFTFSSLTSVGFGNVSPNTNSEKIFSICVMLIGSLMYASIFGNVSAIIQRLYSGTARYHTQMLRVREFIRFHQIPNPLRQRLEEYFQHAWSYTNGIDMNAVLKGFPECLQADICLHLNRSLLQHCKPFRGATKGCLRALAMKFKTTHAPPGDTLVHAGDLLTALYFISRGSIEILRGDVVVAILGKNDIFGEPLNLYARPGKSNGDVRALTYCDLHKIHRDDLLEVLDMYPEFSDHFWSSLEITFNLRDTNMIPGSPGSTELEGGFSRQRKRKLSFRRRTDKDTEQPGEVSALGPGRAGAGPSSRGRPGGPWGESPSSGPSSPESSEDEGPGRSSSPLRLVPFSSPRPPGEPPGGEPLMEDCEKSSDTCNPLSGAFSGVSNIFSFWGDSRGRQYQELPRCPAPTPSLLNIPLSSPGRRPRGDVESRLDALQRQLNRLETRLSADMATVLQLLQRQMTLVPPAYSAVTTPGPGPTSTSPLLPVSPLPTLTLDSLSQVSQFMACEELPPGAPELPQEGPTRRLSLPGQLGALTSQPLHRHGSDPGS

**Q.** `Cc1ccc(C)c(C(=O)COC(=O)CCCC(=O)Nc2cc(C(F)(F)F)ccc2Cl)c1` was tested. Which “hERG current change (%, negative = inhibition) at 10uM” value did it give?
**A.** 28.4%

**Q.** For `CC1CCN(C(=O)c2ccc(S(=O)(=O)NCc3ccco3)cc2)CC1`, which “hERG current change (%, negative = inhibition) at 10uM” value is on record?
**A.** 16.3%

**Q.** Which “hERG current change (%, negative = inhibition) at 10uM” value does the source give for `C=CCN(c1ccccc1)S(=O)(=O)c1cccc(C(=O)NCc2ccncc2)c1` here?
**A.** -27.1%

**Q.** Which “hERG current change (%, negative = inhibition) at 10uM” value does the source give for `Cc1ccc(S(=O)(=O)c2cc3c(=O)n4ccccc4nc3n(Cc3ccco3)c2=N)cc1` here?
**A.** -11.2%

**Q.** How did the “hERG current change (%, negative = inhibition) at 10uM” value turn out when `Cc1ccc2c(ccc[n+]2CC(=O)c2ccccc2)c1.[Br-]` was run?
**A.** -13.1%

**Q.** How did the “hERG current change (%, negative = inhibition) at 10uM” value turn out when `CCN1CCN(Cc2nnnn2C(C)(C)C)CC1` was run?
**A.** -1.73%

**Q.** Which “hERG current change (%, negative = inhibition) at 10uM” value does the source give for `CCCOP(=O)(OCCC)C(Nc1cccc(C(F)(F)F)c1)c1ccc(C)cc1` (centres unmarked) here?
**A.** 24.4%

**Q.** With `COc1cc(/C=N/NC(=O)CNC(=O)/C=C/c2ccco2)cc(OC)c1OC` as the compound, how does the “hERG current change (%, negative = inhibition) at 10uM” value read?
**A.** 17.4%

**Q.** `OCC1(CCOc2ccccc2)CCN(Cc2ccccc2C(F)(F)F)CC1` was tested. Which “hERG current change (%, negative = inhibition) at 10uM” value did it give?
**A.** -34.2%

**Q.** With `N#CC(c1ccc(Cl)cc1)(c1ncc(C(F)(F)F)cc1Cl)N1CCOCC1` (centres unmarked) as the compound, how does the “hERG current change (%, negative = inhibition) at 10uM” value read?
**A.** -8.25%

**Q.** For `CN(c1ccc(OCc2nnc(-c3ccccc3)o2)cc1)S(=O)(=O)c1ccccc1`, which “hERG current change (%, negative = inhibition) at 10uM” value is on record?
**A.** -13.2%

**Q.** For `Cc1ccc(CNC(=O)Cn2nnc(C(=O)Nc3cc(C)ccc3C)c2N)cc1`, which “hERG current change (%, negative = inhibition) at 10uM” value is on record?
**A.** 16.1%

**Q.** For `COCCNC(=O)CS(=O)(=O)Cc1nc(-c2ccc(C)cc2)oc1C`, which “hERG current change (%, negative = inhibition) at 10uM” value is on record?
**A.** 5.53%

**Q.** With `COc1cc(OC)cc(C(=O)Nn2cc(C(=O)Nc3ccc(F)cc3F)c3ccccc3c2=O)c1` as the compound, how does the “hERG current change (%, negative = inhibition) at 10uM” value read?
**A.** 1.46%

**Q.** How did the “hERG current change (%, negative = inhibition) at 10uM” value turn out when `COC(=O)c1c(NC(=O)C2CC2)sc(C(=O)Nc2ccccc2)c1C` was run?
**A.** 7.58%

**Q.** How did the “hERG current change (%, negative = inhibition) at 10uM” value turn out when `Cc1cc(Nc2ccccc2)nn1C(=O)c1ccc(Br)cc1` was run?
**A.** 12.2%

**Q.** How did the “hERG current change (%, negative = inhibition) at 10uM” value turn out when `O=C(CC(=O)Nc1ccccc1C(=O)O)NNC(=O)Cc1ccccc1` was run?
**A.** -2.35%

**Q.** For `CNC(=O)CS(=O)(=O)CC(=O)Nc1cc(OCCOC)c(Cl)cc1Cl`, which “hERG current change (%, negative = inhibition) at 10uM” value is on record?
**A.** 10.6%

**Q.** With `Cc1ccccc1C(=O)NC1CC2CCCC(C1)N2Cc1ccc(Cl)cc1` (centres unmarked) as the compound, how does the “hERG current change (%, negative = inhibition) at 10uM” value read?
**A.** -71%

**Q.** `CC(=O)c1c(C)nn(CC(O)COc2ccc3ccccc3c2)c1C` (centres unmarked) was tested. Which “hERG current change (%, negative = inhibition) at 10uM” value did it give?
**A.** 5.03%

**Q.** `O=C(O)CC(NC(=O)C12CC3CC(CC(C3)C1)C2)c1cc([N+](=O)[O-])ccc1Cl` (centres unmarked) was tested. Which “hERG current change (%, negative = inhibition) at 10uM” value did it give?
**A.** -1.61%

**Q.** Which “hERG current change (%, negative = inhibition) at 10uM” value does the source give for `COc1cc(CNC(C)(C)C)ccc1OCC(=O)NC(C)(C)C` here?
**A.** 15.8%

**Q.** For `Cc1cc(S(=O)(=O)Nc2ccc(F)cc2)c(C)s1`, which “hERG current change (%, negative = inhibition) at 10uM” value is on record?
**A.** -4.19%

Source: PMC4336329 (PLoS ONE, 2015)
